Assay results from publication PMC8175399.
No constants are given. Whether binding was seen depends on the method and setting. Binding seen in cells or lysates may run through a third protein. Some entries that bind do so weakly or less than the wild type.

By UniProt entry, the sequences of proteins in these tests, tags left out.
UniProt P37238: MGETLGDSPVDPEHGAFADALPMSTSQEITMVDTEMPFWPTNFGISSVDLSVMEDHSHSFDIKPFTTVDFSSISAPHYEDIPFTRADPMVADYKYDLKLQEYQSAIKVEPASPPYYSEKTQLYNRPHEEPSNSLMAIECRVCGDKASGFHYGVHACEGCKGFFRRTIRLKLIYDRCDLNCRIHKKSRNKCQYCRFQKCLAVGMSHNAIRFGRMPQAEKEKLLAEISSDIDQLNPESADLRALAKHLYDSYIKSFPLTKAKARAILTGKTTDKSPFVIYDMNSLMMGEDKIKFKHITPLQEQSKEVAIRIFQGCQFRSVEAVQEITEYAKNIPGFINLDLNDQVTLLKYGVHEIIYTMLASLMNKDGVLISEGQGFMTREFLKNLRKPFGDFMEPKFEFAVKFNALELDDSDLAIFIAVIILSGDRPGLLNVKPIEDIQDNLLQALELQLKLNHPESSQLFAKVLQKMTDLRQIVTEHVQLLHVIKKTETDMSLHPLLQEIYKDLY

Tests used:
Test in all cases: co-IP; Dynabeads (sheep anti-mouse or anti-rabbit IgG) loaded with an antibody to one protein or IgG control, incubated overnight at 4 °C with RIPA lysate of mouse neutrophils; the other protein detected by western blotting
[1] = biological target: T1, perilipin-2 (mouse (endogenous in mouse neutrophils)) (UniProt P43883)
T1 sequence: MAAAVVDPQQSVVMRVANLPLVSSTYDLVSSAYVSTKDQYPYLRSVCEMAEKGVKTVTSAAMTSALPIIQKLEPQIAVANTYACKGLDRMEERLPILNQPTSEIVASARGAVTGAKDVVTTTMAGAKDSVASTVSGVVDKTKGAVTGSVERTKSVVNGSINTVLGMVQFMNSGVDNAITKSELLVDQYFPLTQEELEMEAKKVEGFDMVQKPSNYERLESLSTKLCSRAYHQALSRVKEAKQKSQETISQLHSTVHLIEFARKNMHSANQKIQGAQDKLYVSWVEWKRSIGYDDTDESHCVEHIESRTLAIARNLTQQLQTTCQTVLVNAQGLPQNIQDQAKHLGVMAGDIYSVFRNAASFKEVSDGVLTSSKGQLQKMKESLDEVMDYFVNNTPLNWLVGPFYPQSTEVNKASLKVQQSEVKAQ

[2] = biological target: T2, lysosome-associated membrane protein 2 (mouse (endogenous in mouse neutrophils)) (UniProt P17047)
T2 sequence: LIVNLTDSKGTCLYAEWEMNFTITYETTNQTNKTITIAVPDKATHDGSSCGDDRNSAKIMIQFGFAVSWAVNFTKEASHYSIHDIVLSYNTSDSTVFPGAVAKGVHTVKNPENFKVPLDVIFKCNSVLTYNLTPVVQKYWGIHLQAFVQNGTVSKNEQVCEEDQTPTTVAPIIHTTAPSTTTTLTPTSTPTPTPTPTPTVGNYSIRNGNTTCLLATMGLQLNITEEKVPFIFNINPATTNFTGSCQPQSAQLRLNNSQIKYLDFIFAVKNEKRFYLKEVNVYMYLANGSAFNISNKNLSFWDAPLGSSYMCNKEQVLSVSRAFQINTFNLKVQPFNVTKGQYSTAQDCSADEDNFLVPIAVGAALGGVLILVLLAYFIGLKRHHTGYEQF

[3] = biological target: T3, mouse taste receptor type-2 member 138 (mouse (endogenous in mouse neutrophils)) (UniProt Q7TQA6)
T3 sequence: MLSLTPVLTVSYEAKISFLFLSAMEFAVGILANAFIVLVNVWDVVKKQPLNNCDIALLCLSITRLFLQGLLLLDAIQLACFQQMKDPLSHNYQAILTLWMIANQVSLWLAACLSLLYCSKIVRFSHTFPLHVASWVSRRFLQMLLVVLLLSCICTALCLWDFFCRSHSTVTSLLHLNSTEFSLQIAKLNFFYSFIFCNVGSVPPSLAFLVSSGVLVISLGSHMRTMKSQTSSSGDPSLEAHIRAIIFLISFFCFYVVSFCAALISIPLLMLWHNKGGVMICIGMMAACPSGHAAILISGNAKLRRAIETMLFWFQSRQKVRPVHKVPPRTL

[4] = biological target: peroxisome proliferator-activated receptor gamma (mouse (endogenous in mouse neutrophils)) (UniProt P37238)

## peroxisome proliferator-activated receptor gamma (from UniProt P37238 1-505)
[1]
  binding: binds
[2]
  binding: no binding
[3]
  binding: no binding

B1: perilipin-2 (protein, UniProt P43883 1-425)
chain: T1 sequence
[2]
  binding: binds
[4]
  binding: binds

B2: mouse taste receptor type-2 member 138 (receptor, UniProt Q7TQA6 1-331)
chain: T3 sequence
[2]
  binding: no binding
